# Data from paper PMC4336329 (PLoS ONE, 2015).
# Out of some 310,000 compounds screened, about 2,200 (0.71%) showed an effect of 50% or more. The effect is printed as a negative number. Some of the results follow.
# Molecular target: human ether-à-go-go-related gene (hERG) potassium channel (human, UniProt Q12809)
# Assay: primary screen, population patch clamp on CHO cells stably expressing hERG
# Sequence of human ether-à-go-go-related gene (hERG) potassium channel (Q12809 whole entry, looked up): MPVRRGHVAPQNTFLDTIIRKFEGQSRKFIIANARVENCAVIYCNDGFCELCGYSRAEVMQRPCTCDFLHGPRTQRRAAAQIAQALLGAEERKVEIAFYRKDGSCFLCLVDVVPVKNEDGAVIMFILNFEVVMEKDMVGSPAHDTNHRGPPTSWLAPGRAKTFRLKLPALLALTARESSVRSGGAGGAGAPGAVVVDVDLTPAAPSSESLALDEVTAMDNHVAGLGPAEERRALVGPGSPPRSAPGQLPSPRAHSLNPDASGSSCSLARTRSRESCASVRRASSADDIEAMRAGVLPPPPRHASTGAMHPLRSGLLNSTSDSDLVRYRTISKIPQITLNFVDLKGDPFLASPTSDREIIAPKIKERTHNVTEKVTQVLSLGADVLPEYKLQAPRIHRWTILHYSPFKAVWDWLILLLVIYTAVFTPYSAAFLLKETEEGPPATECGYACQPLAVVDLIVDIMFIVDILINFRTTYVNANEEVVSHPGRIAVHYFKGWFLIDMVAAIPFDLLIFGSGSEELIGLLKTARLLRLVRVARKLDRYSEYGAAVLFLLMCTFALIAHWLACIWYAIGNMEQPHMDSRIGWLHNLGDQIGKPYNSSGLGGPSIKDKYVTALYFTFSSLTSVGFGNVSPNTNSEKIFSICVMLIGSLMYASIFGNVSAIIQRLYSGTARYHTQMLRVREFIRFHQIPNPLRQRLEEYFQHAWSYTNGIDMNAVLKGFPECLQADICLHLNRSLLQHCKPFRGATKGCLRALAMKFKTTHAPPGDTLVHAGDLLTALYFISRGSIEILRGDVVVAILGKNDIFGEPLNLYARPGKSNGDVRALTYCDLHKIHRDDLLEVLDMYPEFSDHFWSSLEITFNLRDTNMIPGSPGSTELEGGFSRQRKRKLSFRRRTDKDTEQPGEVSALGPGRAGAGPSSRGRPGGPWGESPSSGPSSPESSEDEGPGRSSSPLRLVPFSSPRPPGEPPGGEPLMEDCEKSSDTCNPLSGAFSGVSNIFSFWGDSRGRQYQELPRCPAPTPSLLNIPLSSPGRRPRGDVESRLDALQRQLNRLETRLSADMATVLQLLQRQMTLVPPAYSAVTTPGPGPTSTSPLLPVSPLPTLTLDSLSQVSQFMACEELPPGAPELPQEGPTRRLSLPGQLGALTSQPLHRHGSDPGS
row,SMILES,"hERG current change (%, negative = inhibition) at 1uM [%]"
1,Cc1cccc(NC(=O)CCC(=O)N2CCOCC2)n1,8.62
2,O=C(COc1coc(CN2CCN(c3ccccc3F)CC2)cc1=O)NC1CCCCC1,2.87
3,CC(C)CC(=O)Nc1c2c(nn1-c1ccc([N+](=O)[O-])cc1)CS(=O)(=O)C2,-0.629
4,O=C(N/N=C/c1ccc([N+](=O)[O-])cc1)c1cccs1,12.4
5,O=C(Cn1nc(Cc2cccnc2)c2ccccc2c1=O)N1CCN(C(=O)c2ccco2)CC1,4.49
6,CC1CCCC2(C1)NC(=S)c1c(sc3c1CCCC3)N2 (centres unmarked),9.02
7,COC(=O)c1c(C)[nH]c(O)c1C=Nc1ccc(C(C)C)cc1,9.72
8,CCOc1ccc(/C=C(/NC(=O)c2ccccc2)C(=O)NCCC(=O)O)cc1,13.2
9,Cc1cccc(N2C(=O)CC(N3CCN(Cc4ccc(Cl)cc4)CC3)C2=O)c1 (centres unmarked),3.11
10,COC(C(=O)Nc1ccc(C(C)=O)cc1)c1ccccc1 (centres unmarked),10.8
11,Cc1c(C)c2ccc(OCC(=O)Nc3cccnc3)cc2oc1=O,12.6
12,O=C(Cc1cccs1)N/N=C/C=C/c1ccccc1,15.8
13,Nc1nonc1C(=O)NCCNc1ncccc1[N+](=O)[O-],-1.99
14,Nc1nnc(SCC(=O)N2CCCCC2)s1,6.3
15,Cn1c(=O)n(Cc2ccccc2F)c(=O)c2c1nc1n2CCCN1CCc1ccccc1,13.3
16,COc1ccccc1C1CC(c2ccc(F)cc2)Nc2ncnn21 (centres unmarked),4.74
17,COC(=O)c1c(-c2ccc(C)cc2)csc1NC(=O)C1CC=CCC1C(=O)O (centres unmarked),12.5
18,Cc1ccc(NC(=O)C(Cc2ccccc2)N2C(=O)C3C4CCC(C4)C3C2=O)cc1Cl (centres unmarked),5.09
19,COc1cc(C=O)c(Br)cc1OC1CCCC1,14.1
20,COc1ccc(C)cc1S(=O)(=O)N1CCN(Cc2ccccc2)CC1,-1.43
21,CC1CCc2c(sc(NC(=O)COC(=O)c3ccccc3NCc3ccco3)c2C#N)C1 (centres unmarked),12.9
22,COc1cc(OC)cc(C(=O)NNC(=O)CCOc2ccccc2OC)c1,9.43

row,SMILES,"hERG current change (%, negative = inhibition) at 1uM [%]"
1,COc1ccccc1C(=O)Nc1ccc(OCc2nnc3c4ccccc4c(C)nn23)cc1,9.8
2,Cc1ccc(NC(=O)NC2=N/C(=C(/C#N)C(=O)N3CCCC3)c3ccccc32)cc1,9.06
3,CCOC(=O)C1(c2ccccc2)CCN(CCC(=O)Nc2ccccc2OC)CC1,8.38
4,N/C(CS(=O)(=O)c1ccccc1)=N\OC(=O)c1ccc(F)cc1,7.75
5,CN(CC(=O)Nc1nc2ccccc2s1)S(=O)(=O)c1ccc(Cl)cc1,8.16
6,CC1(c2ccc(Cl)cc2)NC(=O)N(CC(=O)NCc2ccc(F)cc2)C1=O (centres unmarked),-2.24
7,Cc1ccc(NC(=O)CCCN2C(=S)NC(C)(C)CC2C)cc1 (centres unmarked),0.355
8,CCN(CC)C(=O)c1sc(NC(=O)c2ccc3c(c2)OCO3)c(C#N)c1C,7.64
9,COC(=O)c1cccc(C(=O)N2CCCC(CCC(=O)N(C)CCc3ccccn3)C2)c1 (centres unmarked),7.24
10,CC(=O)NC(Cc1ccccc1C)C(=O)NC1CCN(c2ncccc2[N+](=O)[O-])CC1 (centres unmarked),10
11,Cc1ccc(SCCNC(=O)c2ccc(CN3CCOCC3)cc2)cc1,2.26
12,COc1cccc(NC(=O)C(c2ccccc2)N2CCCC2)c1 (centres unmarked),8.97
13,CCn1c(COc2cccc(OC)c2)nnc1SCC(=O)N1CCOCC1,-7.97
14,CCOC(=O)c1sc(NC(=O)/C=C/c2ccccc2)nc1C,11.9
15,O=C(CCCCC(=O)Nc1ccccc1)Nc1ccccc1,26.6
16,COc1ccc(-n2c(=O)c3c4c(sc3n3c(=S)[nH]nc23)COC(C(C)C)C4)cc1 (centres unmarked),15.1
17,Nc1sccc1C(=O)c1ccccc1,7.73
18,O=c1c(Cl)c(N2CCC3(CC2)OCCO3)cnn1C12CC3CC(CC(C3)C1)C2,11.2
19,O=C(NC1CCCC1)C(c1cccnc1)N(C(=O)c1csnn1)c1ccccc1Cl (centres unmarked),-1.58
20,CCc1cccc(C)c1NS(=O)(=O)c1c(C)nc2sccn2c1=O,0.344
21,O=C1CC(c2ccccc2F)c2cc3c(cc2N1)CCC3 (centres unmarked),16.8
22,Cc1ccc(-c2ccc(=O)n(CC(=O)N3CCC4(CC3)OCCO4)n2)cc1,12.5
